# Measured values: PubChem BioAssay AID1240 (Sanford-Burnham Center for Chemical Genomics, 2008)
# About 800 (1.6%) of roughly 50,000 compounds showed an effect of 50% or more. This is one part of the list.
# Biological target: Bcl-2-like protein 10 (Homo sapiens) (UniProt Q9HD36)
# Test: Phenotype converters, Bcl-B/TR3 peptide binding displacement, primary biochemical FP (AID 1240);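 note: 0% = Bcl-B with tracer peptide and DMSO and 100% = tracer peptide lacking Bcl-B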
# Details: GST-Bcl-B / FITC-TR3 peptide fluorescence polarization; stronger effect = higher value; compound at 3.75 mg/L
# Sequence of UniProt Q9HD36 (Q9HD36 whole entry, looked up): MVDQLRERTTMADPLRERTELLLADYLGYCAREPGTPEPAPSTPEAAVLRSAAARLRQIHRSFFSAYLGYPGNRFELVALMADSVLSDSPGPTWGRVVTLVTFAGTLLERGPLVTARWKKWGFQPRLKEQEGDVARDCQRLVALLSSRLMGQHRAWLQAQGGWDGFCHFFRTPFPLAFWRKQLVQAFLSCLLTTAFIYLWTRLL
row,SMILES,displacement [%]
1,O=C1OC(c2ccccc2)=N/C1=C/c1ccc(-c2cccc([N+](=O)[O-])c2)o1,-4.6
2,COc1cccc(/C=C2\C(=O)NN(c3ccccc3)C2=O)c1OC,-9.4
3,O=C(N=Nc1c(O)[nH]c2ccc([N+](=O)[O-])cc12)c1ccc2c(c1)OCO2,75.1
4,CC1CCc2c(sc(NC(=O)c3ccccc3Cl)c2C(=O)N2CCCCCC2)C1 (stereo not given),-7.1
5,CC1C(c2ccc(Cl)cc2)NC(c2ccc(Cl)cc2)C(C)C1O (stereo not given),-18.1
6,O=C(O)c1ccc(N2C(=O)CC(NC3CCN(Cc4ccccc4)CC3)C2=O)cc1 (stereo not given),3.2
7,COc1ccccc1/C=N/NC(=O)CSc1nc2ccccc2n1Cc1ccccc1,4
8,O=C1NC(=S)N(c2cccc(Br)c2)C(=O)/C1=C\c1cc(Cl)ccc1O,0
9,COC(=O)c1sccc1NC(=O)c1cccc2ccccc12,36.6
10,NC(=S)N/N=C/c1ccc(-c2cc(Cl)cc(Cl)c2)o1,17.1
11,CCc1ccccc1NC(=O)CCc1ccccc1,11.9
12,C=CCOc1c(Cl)cc(/C=C2/C(=O)NC(=O)N(c3ccccc3F)C2=O)cc1OCC,37.4
13,Cn1c2ccccc2c2nnc(SCC(=O)N(c3ccccc3)c3ccccc3)nc21,38.2
14,COc1cccc(OCCOCCN2CCCC2)c1,7.5
15,Cc1ccc(N2C(=O)CC(NCCc3ccccc3)C2=O)cc1 (stereo not given),4
16,COC(=O)c1cc(C(=O)Nc2ccc(C)cn2)cc([N+](=O)[O-])c1,-0.2
17,CCN(CC)C(=O)C(=O)N/N=C/c1cccc(Br)c1,9.8
18,CCOc1ccccc1CN1CCN(Cc2cc(OC)ccc2O)CC1,4.7
19,CC(C)(C)c1ccc(/C=C/C(=O)N2CCc3ccccc3C2)cc1,6.2
20,CS(=O)(=O)c1ccc2nc(NC(=O)/C=C/c3ccc(F)cc3)sc2c1,7.3
21,COc1ccccc1NC(=O)COc1ccc(Cl)cc1,10
22,COc1ccc(C(=O)Nc2sc3c(c2C#N)CCCCC3)cc1,-3.4
23,O=C(Nc1ccc2oc(-c3ccccc3)nc2c1)c1ccncc1,-3.2
24,Cc1ccc2cccc(SCC(=O)Nc3ccc([N+](=O)[O-])cc3)c2n1,11.9

row,SMILES,displacement [%]
1,Cc1sc2nc(SCC(=O)N3CCOCC3)[nH]c(=O)c2c1C,34.3
2,Cc1ccc(CN2CCN(/N=C/c3ccc(C(F)(F)F)cc3)CC2)cc1,12.8
3,COc1cc(NS(=O)(=O)c2ccc(N/C=C/C(=O)c3cccs3)cc2)nc(OC)n1,8.5
4,CCN(Cc1ccccc1)C(=O)c1cccc([N+](=O)[O-])c1,-13.3
5,Nc1nnc(SCC(=O)n2c3ccccc3c3ccccc32)s1,32.8
6,CC(/C=N\N1CCN(c2ccccc2)CC1)=C\c1ccccc1,-6
7,COc1ccccc1N1CCN(/N=C\c2ccccc2[N+](=O)[O-])CC1,-2.4
8,COc1ccc(CC2S/C(=N\N=C\c3cccs3)NC2=O)cc1 (stereo not given),1.7
9,Cc1cc(Cl)ccc1OCCCC(=O)Nc1ccc(C(N)=O)cc1,14.7
10,O=C(/C=C/c1ccc(Cl)cc1Cl)Nc1ccc2c(c1)OCO2,9.4
11,Cc1ccc(S(=O)(=O)Nc2cc(Sc3nc4ccccc4[nH]3)c(O)c3ccccc23)cc1,5.6
12,COc1ccc(NC(=O)c2ccc(C)c(C)c2)c(OC)c1,10.6
13,O=C1S/C(=C\c2ccc([N+](=O)[O-])cc2)C(=O)N1Cc1ccccc1,-1.4
14,O=C(Nc1ccc(Br)cc1C(=O)O)c1ccc2c(c1)C(=O)N(C1CCCCC1)C2=O,2.9
15,COc1cccc(OCCCCN2CCCC2)c1,5.3
16,Cc1ccc(S(=O)(=O)Nc2cc(-c3ccc(F)cc3)[nH]n2)cc1,8.8
17,O=C1S/C(=C/c2cccc(O)c2)C(=O)N1c1ccccc1,1.9
18,O=C(c1cccc2ccccc12)N1CCN(c2ccccc2)CC1,0.1
19,O=C(CN(Cc1ccccc1)S(=O)(=O)c1ccc(Cl)cc1)Nc1ccccc1,-15.2
20,CCOc1cc(C2C3=C(CC(C)(C)CC3=O)OC3=C2C(=O)CC(C)(C)C3)cc(Br)c1O,13.6
21,CCOC(=O)/C(=N/O)C1=NC(C)(C)Cc2cc(OC)c(OC)cc21,12.6
22,CS(=O)(=O)N(CC(=O)Nc1cccc2ccccc12)c1ccc(Oc2ccccc2)cc1,5
23,COc1ccc(-c2cc(C(F)(F)F)n3nc(C(=O)NCCN4CCOCC4)c(Cl)c3n2)cc1,-10.2
24,COc1cc(C)c(N(C(C)=O)c2ccccc2)c(C)c1,-3.3

row,SMILES,displacement [%]
1,Cc1onc(-c2ccccc2Cl)c1C(=O)Nc1nc(-c2ccc([N+](=O)[O-])cc2)cs1,-12.5
2,CC(=Nc1ccc(C)cc1)c1c(O)n(C)c(=O)n(C)c1=O,5.1
3,CN1CCN(C(=S)NC(=O)/C=C/c2ccc(Br)cc2)CC1,-0.6
4,COc1cc([N+](=O)[O-])ccc1NC(=O)COc1cccc(Cl)c1,6.2
5,COc1ccc2nc(NC(=O)c3sc4cc([N+](=O)[O-])ccc4c3Cl)sc2c1,-17.3
6,O=P(Cc1ccccc1O)(c1ccccc1)c1ccccc1,1.6
7,COc1ccc(CN2CCN(C(=O)c3cccc(OC)c3OC)CC2)c(OC)c1,-14.3
8,Cc1cc(Cl)ccc1OC(C)C(=O)Nc1cc(Cl)ccc1Cl (stereo not given),-5.1
9,O=C(N=Nc1c(O)[nH]c2ccccc12)c1ccccn1,-7.8
10,CCOc1ccc(C(=O)Nc2ccc(-c3nc4ccccc4o3)c(O)c2)cc1[N+](=O)[O-],2.3
11,CCOc1ccccc1NC(=O)c1cc(Cl)ccc1Cl,-13
12,Cc1cc(C)n2nc(-c3cccc(F)c3)cc2n1,14.1
13,C=CCn1c(=O)c(C(=O)Nc2ccccc2Cl)c(O)c2ccccc21,-2.3
14,Cc1ccccc1NC(=O)/C=C/c1ccc(F)cc1,10.3
15,NS(=O)(=O)c1cccc(C(=O)Nc2ccc([N+](=O)[O-])cc2)c1,7.8
16,COc1c(Cl)cc(Cl)cc1C1NC(=S)NC(C)=C1C(=O)Nc1ccccc1 (stereo not given),-15.8
17,CCOc1ccc(C=Nc2ccc3c(c2)nc(C)n3C)cc1,6.5
18,Cc1cc(C(=O)Nc2ccc(NC(=O)C(=O)O)cc2)c(C)o1,7.1
19,O=C1S/C(=C/c2ccccc2F)C(=O)N1CNc1cccc(C(F)(F)F)c1,-4.4
20,CCCCCCC(=O)Nc1nnc(CCC)s1,-9.7
21,Cc1ccc2ncnc(Nc3cccc(C(F)(F)F)c3)c2c1,-3.1
22,C=CCc1cccc2cc(C(=O)NCc3ccccc3)c(=O)oc12,34.1
